B1: Caulobacter ParB omega fusion; a variant is named by its letters at X, in order, B8GW30 (parent)
chain: MESVVVGEPGMSEGRRGLGRGLSALLGEVDAAPAQAPGEQLGGSREAPIEILQRNPDQPRRTFREEDLEDLSNSIREKGVLQPILVRPSPDTAGEYQIVAGERAWRAAQRAGLKTVPIMVRELDDLAVLEIGIIENVQRADLNVLEEALSYKVLMEKFERTQENIAQTIGKSXSHVANXMRLLXLPDEVQSYLVSGELTAXHARAIAAAADPVALAKQIIEGGLSVRETEALARKAPNLSAGKSKGGRPPRVKDTDTQALESDLSSVLGLDVSIDHRGSTGTLTITYATLEQLDDLCNRLTRGI

Over roughly 81,000 sequences, “one-hybrid fitness for binding NBS DNA” has its median near -0.1; the highest 2% begin near 0.36. The list shows a part of the results. Bounds are passed on as bounds.

Variants of B1 are the subject of this assay. Description: one-hybrid fitness for binding NBS DNA (the Noc-binding site; scaled: cognate 1, non-cognate 0); higher = stronger binding. As to conditions: with NBS DNA site. In short, it runs like this: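 In E. coli USO, a HIS3 reporter with its site placed 19 bp from the promoter was used to select Caulobacter ParB variants randomised at four specificity codons. Growth lasted 48 hours at 37°C on histidine-free M9 containing 0.1 mM IPTG and 5 mM 3-AT. Fitness was taken as the log change in variant-to-wild-type read ratio from Illumina sequencing of pre- and post-selection plasmids, rescaled between the non-cognate and cognate sites.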
Regarding FPRF, the “one-hybrid fitness for binding NBS DNA” value is at most 0.2.
In the case of MSIF it was at most 0.2; in that of VGES, at most 0.2; in that of RWCR, at most 0.2.
In the case of NIMD it was at most 0.2; in that of LILE, at most 0.2.
As for DVTW, the figure is at most 0.2.
As for DPLN, the “one-hybrid fitness for binding NBS DNA” value was at most 0.2.
As for ITWR, the figure is at most 0.2.
In the case of MTNP it was at most 0.2; in that of SAHI, at most 0.2; in that of SFPY, at most 0.2.
As to ATLY, the “one-hybrid fitness for binding NBS DNA” value was at most 0.2.
Take QTRV: the “one-hybrid fitness for binding NBS DNA” value came to 0.576.
In the case of RMPK it was at most 0.2.
As for ASLS, the figure is at most 0.2.
As for IAHC, the figure is at most 0.2; as for AMKC, at most 0.2.
For VICL, the “one-hybrid fitness for binding NBS DNA” value is at most 0.2.
As for RSLH, the figure is at most 0.2; as for IMSF, at most 0.2; as for WFNR, at most 0.2.
As for WNGF, the figure is at most 0.2; as for QPCT, at most 0.2.
For GPPF, the “one-hybrid fitness for binding NBS DNA” value is at most 0.2.
As for TSQC, the figure is at most 0.2; as for TVQM, at most 0.2.
In the case of RPEV it was at most 0.2; in that of SNHL, at most 0.2.
As for YNDR, the figure is at most 0.2; as for IFHG, at most 0.2; as for TAGQ, at most 0.2.
As to PMTY, the “one-hybrid fitness for binding NBS DNA” value is at most 0.2.
In the case of ACTC it was at most 0.2.
In the case of TLFC it was at most 0.2; in that of EELK, at most 0.2.
As for CSPN, the figure is at most 0.2; as for RPWR, at most 0.2; as for WATS, at most 0.2.
With SDTL, the “one-hybrid fitness for binding NBS DNA” value is at most 0.2.
In the case of CVQR it was at most 0.2; in that of IFYT, at most 0.2; in that of WTTQ, at most 0.2.
As for WAVM, the figure is at most 0.2; as for EWRC, at most 0.2.
As for WADF, the figure is at most 0.2; as for CGTG, at most 0.2; as for IRVE, at most 0.2.
PMPL: the “one-hybrid fitness for binding NBS DNA” value was at most 0.2.
Take KRLQ: the “one-hybrid fitness for binding NBS DNA” value was at most 0.2.
In the case of TQGG it was at most 0.2; in that of IMNT, at most 0.2.
In the case of CPNT it was at most 0.2; in that of HGCK, at most 0.2.
As for HWVP, the figure is at most 0.2.
As for YKRG, the “one-hybrid fitness for binding NBS DNA” value is at most 0.2.
In the case of PSHC it was at most 0.2; in that of RIVL, at most 0.2.
As for WALG, the figure is at most 0.2; as for LSHQ, at most 0.2.
Take GRFP: the “one-hybrid fitness for binding NBS DNA” value was at most 0.2.
As for YELG, the figure is at most 0.2.
In the case of DHTI it was at most 0.2; in that of REYR, at most 0.2.
In the case of LRSQ it was at most 0.2; in that of NPPH, at most 0.2.
Consider LIPA, for which the “one-hybrid fitness for binding NBS DNA” value was at most 0.2.
As for CLWG, the figure is at most 0.2.
As for RMAR, the figure is 0.46; as for GMKT, at most 0.2.
As for HQRS, the figure is at most 0.2; as for APTK, at most 0.2.
Consider GLNK, for which the “one-hybrid fitness for binding NBS DNA” value was at most 0.2.
As to RPRV, the “one-hybrid fitness for binding NBS DNA” value is at most 0.2.
For the variant DKNR, the “one-hybrid fitness for binding NBS DNA” value is at most 0.2.
In the case of HAVT it was at most 0.2; in that of CIWG, at most 0.2; in that of FQST, at most 0.2.
As for DWRS, the figure is at most 0.2; as for DAAT, at most 0.2; as for VKNL, at most 0.2.
In the case of CSPL it was at most 0.2.
For the variant QCAC, the “one-hybrid fitness for binding NBS DNA” value is at most 0.2.
As for YRHL, the figure is at most 0.2.
In the case of NSSP it was at most 0.2; in that of RKIA, at most 0.2.
As for RLTT, the figure is 0.454.
As for ACGN, the “one-hybrid fitness for binding NBS DNA” value is at most 0.2.
As for STTI, the figure is at most 0.2; as for WRHA, at most 0.2; as for AYTM, at most 0.2.
In the case of ASDG it was at most 0.2; in that of GQPP, at most 0.2.
For the variant FWRC, the “one-hybrid fitness for binding NBS DNA” value is at most 0.2.
Turning to VEVN, the “one-hybrid fitness for binding NBS DNA” value was at most 0.2.
As for HPDY, the figure is at most 0.2; as for VISD, at most 0.2; as for IGNS, at most 0.2.
For HLNF, the “one-hybrid fitness for binding NBS DNA” value was at most 0.2.
In the case of LPAY it was at most 0.2.
In the case of QINM it was at most 0.2; in that of NGHL, at most 0.2.
In the case of TAIN it was at most 0.2; in that of MCKT, at most 0.2.
On to EVMT, for which the “one-hybrid fitness for binding NBS DNA” value was at most 0.2.
In the case of RLPQ it was at most 0.2.
In the case of YVDY it was at most 0.2; in that of NYYL, at most 0.2.
In the case of ACPS it was at most 0.2; in that of FNPD, at most 0.2.
VCQM: the “one-hybrid fitness for binding NBS DNA” value was at most 0.2.
In the case of SKGT it was at most 0.2; in that of PTLP, at most 0.2; in that of CMQI, at most 0.2.
As for MAGS, the figure is at most 0.2; as for NSAT, at most 0.2; as for GASW, at most 0.2.
As for QHQK, the figure is at most 0.2; as for AMRS, at most 0.2; as for WEWS, at most 0.2.
For the variant LNKA, the “one-hybrid fitness for binding NBS DNA” value was at most 0.2.
Take MDLY: the “one-hybrid fitness for binding NBS DNA” value was at most 0.2.
For WNTR, the “one-hybrid fitness for binding NBS DNA” value is at most 0.2.
As to VTLT, the “one-hybrid fitness for binding NBS DNA” value was at most 0.2.
As for SYKP, the figure is at most 0.2.
In the case of TYVS it was at most 0.2; in that of WHLL, at most 0.2; in that of WTTK, at most 0.2.
As for QCKG, the figure is 0.377.
As for NYSR, the “one-hybrid fitness for binding NBS DNA” value was at most 0.2.
As for AGLV, the figure is at most 0.2; as for SAEV, at most 0.2; as for HSMG, at most 0.2.
As for QAYI, the figure is at most 0.2; as for AKNF, at most 0.2; as for PNQN, at most 0.2.
As for FKQG, the figure is at most 0.2.
As for LYKM, the “one-hybrid fitness for binding NBS DNA” value is at most 0.2.
As for MSCN, the figure is at most 0.2; as for TVAW, at most 0.2; as for RCNK, at most 0.2.
As for AACA, the figure is at most 0.2; as for LCCC, at most 0.2; as for PKER, at most 0.2.
Regarding SPSM, the “one-hybrid fitness for binding NBS DNA” value was at most 0.2.
In the case of KTLS it was at most 0.2; in that of DRYY, at most 0.2.
Turning to GSFG, the “one-hybrid fitness for binding NBS DNA” value is at most 0.2.
As for DPHT, the figure is at most 0.2; as for QLIT, 0.287; as for LVFG, at most 0.2.
In the case of NEVN it was at most 0.2; in that of IDSG, at most 0.2.
As for KPGG, the figure is at most 0.2; as for ANDR, at most 0.2; as for IRDT, at most 0.2.
With KESS, the “one-hybrid fitness for binding NBS DNA” value was at most 0.2.
As for VPNA, the figure is at most 0.2; as for EEVT, at most 0.2.
On to READ, for which the “one-hybrid fitness for binding NBS DNA” value is at most 0.2.
As for RVAQ, the figure is at most 0.2; as for VTKY, at most 0.2.
In the case of IRCY it was at most 0.2; in that of ASGS, at most 0.2.
In the case of VAET it was at most 0.2; in that of EPMC, at most 0.2.
For the variant EFGL, the “one-hybrid fitness for binding NBS DNA” value was at most 0.2.
In the case of NVQG it was at most 0.2; in that of MITG, at most 0.2; in that of KAMF, at most 0.2.
As for TPPP, the figure is at most 0.2; as for RSMR, 0.369; as for RSRS, 0.593.
As to IKHR, the “one-hybrid fitness for binding NBS DNA” value was at most 0.2.
In the case of QAIR it was 0.308.
In the case of RDLM it was at most 0.2; in that of WDAC, at most 0.2.
As for SDAE, the figure is at most 0.2; as for RITT, 0.421; as for KTGL, at most 0.2.
Consider VMVS, for which the “one-hybrid fitness for binding NBS DNA” value was at most 0.2.
Consider NQPI, for which the “one-hybrid fitness for binding NBS DNA” value was at most 0.2.
In the case of ELSS, the “one-hybrid fitness for binding NBS DNA” value is at most 0.2.
As for SKIS, the “one-hybrid fitness for binding NBS DNA” value is at most 0.2.
As for PWQL, the figure is at most 0.2.
As to SLQL, the “one-hybrid fitness for binding NBS DNA” value was at most 0.2.
For STLR, the “one-hybrid fitness for binding NBS DNA” value is at most 0.2.
In the case of MTEW it was at most 0.2; in that of LPLD, at most 0.2.
In the case of PEIR it was at most 0.2; in that of HNSV, at most 0.2; in that of SMEW, at most 0.2.
As for ELVM, the figure is at most 0.2; as for FSAT, at most 0.2; as for IYRH, at most 0.2.

Values taken from a collection of fitness landscapes (doi:10.1016/j.celrep.2020.107928).
